Experimental data taken from the supplement of paper PMC12217912.
Some of the results follow. Sequences were assembled here from the parent chain. Values near 0.05 are background.

B1: TEV protease; numbered along this chain (parent)
chain: MGESLFKGPRDYNPISSSICHLTNESDGHTTSLYGIGFGPFIITNKHLFRRNNGTLVVQSLHGVFKVKDTTTLQQHLVDGRDMIIIRMPKDFPPFPQKLKFREPQREERICLVTTNFQTKSMSSMVSDTSCTFPSGDGIFWKHWIQTKDGQCGSPLVSTRDGFIVGIHSASNFTNTNNYFTSVPKNFMELLTNQEAQQWVSGWRLNADSVLWGGHKVFMVKPEEPFQPVKEATQL

Variants of: B1
Assay: raw area under fraction-flipped curve 0-4 h after induction (AUC4h, not background-subtracted), DNA-recorder readout of cleavage of the substrate (dimensionless); higher = more cleavage of the substrate by the protease variant
Conditions: temperature: 34 °C; time window: 0-4 h after rhamnose induction
Protocol: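 In vivo DNA recorder in E. coli TOP10(DE3) ΔrhaA at 34 °C. Each TEVp single-site mutant (parent TEVp 0) is paired with a single-site variant of the 7-mer TEVs (canonical ENLYFQ|S). The substrate sits between flexible linkers in a Bxb1-sfGFP-TEVs-SsrA fusion, so cleavage stabilises Bxb1 and speeds flipping of a recombination array, read by NGS. The value is the raw area under the fraction-flipped curve over 0-4 h after rhamnose induction (AUC4h), with ≥20 reads per time point. It is not background-subtracted; inactive controls average about 0.047.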
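Further: Bxb1 expression induced with 0.2% (w/v) L-rhamnose at OD600 near 0.5, cultures sampled hourly, flipped fraction per protease–substrate barcode pair counted by paired-end Illumina sequencing.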

## MGESLFKGPRDYNPISSSICHLTNESDGHTTSLYGIGFGPFIITNKHLFRRNNMTLVVQSLHGVFKVKDTTTLQQHLVDGRDMIIIRMPKDFPPFPQKLKFREPQREERICLVTTNFQTKSMSSMVSDTSCTFPSGDGIFWKHWIQTKDGQCGSPLVSTRDGFIVGIHSASNFTNTNNYFTSVPKNFMELLTNQEAQQWVSGWRLNADSVLWGGHKVFMVKPEEPFQPVKEATQL [G54M]
  area with substrate ENAYFQS: 0.0584
  area with substrate ENCYFQS: 0.0813
  area with substrate ENEYFQS: 0.0575
  area with substrate ENFYFQS: 0.049
  area with substrate ENGYFQS: 0.0504
  area with substrate ENIYFQS: 0.0882
  area with substrate ENMYFQS: 0.0571
  area with substrate ENNYFQS: 0.0607
  area with substrate ENPYFQS: 0.0585
  area with substrate ENQYFQS: 0.0745
  area with substrate ENRYFQS: 0.0511
  area with substrate ENSYFQS: 0.0613
  area with substrate ENTYFQS: 0.0161
  area with substrate ENVYFQS: 0.0574
  area with substrate ENWYFQS: 0.018

## MGESLFKGPRDYNPISSSICHLTNESDGHTTSLYGIGFGPFIITNKHLFRRNNATLVVQSLHGVFKVKDTTTLQQHLVDGRDMIIIRMPKDFPPFPQKLKFREPQREERICLVTTNFQTKSMSSMVSDTSCTFPSGDGIFWKHWIQTKDGQCGSPLVSTRDGFIVGIHSASNFTNTNNYFTSVPKNFMELLTNQEAQQWVSGWRLNADSVLWGGHKVFMVKPEEPFQPVKEATQL [G54A]
  area with substrate ENAYFQS: 0.0664
  area with substrate ENCYFQS: 0.0614
  area with substrate ENDYFQS: 0.0595
  area with substrate ENEYFQS: 0.0518
  area with substrate ENFYFQS: 0.0622
  area with substrate ENGYFQS: 0.0663
  area with substrate ENHYFQS: 0.0475
  area with substrate ENIYFQS: 0.0668
  area with substrate ENKYFQS: 0.0655
  area with substrate ENQYFQS: 0.0604
  area with substrate ENSYFQS: 0.0596

## MGESLFKGPRDYNPISSSICHLTNESDGHTTSLYGIGFGPFIITNKHLFRRNNKTLVVQSLHGVFKVKDTTTLQQHLVDGRDMIIIRMPKDFPPFPQKLKFREPQREERICLVTTNFQTKSMSSMVSDTSCTFPSGDGIFWKHWIQTKDGQCGSPLVSTRDGFIVGIHSASNFTNTNNYFTSVPKNFMELLTNQEAQQWVSGWRLNADSVLWGGHKVFMVKPEEPFQPVKEATQL [G54K]
  area with substrate ENAYFQS: 0.062
  area with substrate ENDYFQS: 0.0571
  area with substrate ENEYFQS: 0.0658
  area with substrate ENFYFQS: 0.0738
  area with substrate ENGYFQS: 0.0504
  area with substrate ENHYFQS: 0.0556
  area with substrate ENIYFQS: 0.0565
  area with substrate ENPYFQS: 0.057
  area with substrate ENQYFQS: 0.058
  area with substrate ENRYFQS: 0.041

## MGESLFKGPRDYNPISSSICHLTNESDGHTTSLYGIGFGPFIITNKHLFRRNNWTLVVQSLHGVFKVKDTTTLQQHLVDGRDMIIIRMPKDFPPFPQKLKFREPQREERICLVTTNFQTKSMSSMVSDTSCTFPSGDGIFWKHWIQTKDGQCGSPLVSTRDGFIVGIHSASNFTNTNNYFTSVPKNFMELLTNQEAQQWVSGWRLNADSVLWGGHKVFMVKPEEPFQPVKEATQL [G54W]
  area with substrate ENAYFQS: 0.0551
  area with substrate ENCYFQS: 0.0549
  area with substrate ENDYFQS: 0.0657
  area with substrate ENEYFQS: 0.0579
  area with substrate ENGYFQS: 0.0354
  area with substrate ENHYFQS: 0.0508
  area with substrate ENIYFQS: 0.061
  area with substrate ENPYFQS: 0.06
  area with substrate ENQYFQS: 0.0591
  area with substrate ENRYFQS: 0.0498
  area with substrate ENSYFQS: 0.0425
  area with substrate ENTYFQS: 0.0492
  area with substrate ENVYFQS: 0.0553
  area with substrate ENWYFQS: 0.0425

## MGESLFKGPRDYNPISSSICHLTNESDGHTTSLYGIGFGPFIITNKHLFRRNNGTLVVQCLHGVFKVKDTTTLQQHLVDGRDMIIIRMPKDFPPFPQKLKFREPQREERICLVTTNFQTKSMSSMVSDTSCTFPSGDGIFWKHWIQTKDGQCGSPLVSTRDGFIVGIHSASNFTNTNNYFTSVPKNFMELLTNQEAQQWVSGWRLNADSVLWGGHKVFMVKPEEPFQPVKEATQL [S60C]
  area with substrate ENAYFQS: 0.0604
  area with substrate ENCYFQS: 0.0578
  area with substrate ENDYFQS: 0.057
  area with substrate ENEYFQS: 0.0601
  area with substrate ENFYFQS: 0.0581
  area with substrate ENGYFQS: 0.0554
  area with substrate ENHYFQS: 0.0581
  area with substrate ENIYFQS: 0.106
  area with substrate ENKYFQS: 0.0442
  area with substrate ENMYFQS: 0.0692
  area with substrate ENNYFQS: 0.0605
  area with substrate ENPYFQS: 0.063
  area with substrate ENQYFQS: 0.0517
  area with substrate ENRYFQS: 0.062
  area with substrate ENSYFQS: 0.0631
  area with substrate ENVYFQS: 0.0734
  area with substrate ENYYFQS: 0.0443

## MGESLFKGPRDYNPISSSICHLTNESDGHTTSLYGIGFGPFIITNKHLFRRNNGTLVVGSLHGVFKVKDTTTLQQHLVDGRDMIIIRMPKDFPPFPQKLKFREPQREERICLVTTNFQTKSMSSMVSDTSCTFPSGDGIFWKHWIQTKDGQCGSPLVSTRDGFIVGIHSASNFTNTNNYFTSVPKNFMELLTNQEAQQWVSGWRLNADSVLWGGHKVFMVKPEEPFQPVKEATQL [Q59G]
  area with substrate ENAYFQS: 0.0567
  area with substrate ENCYFQS: 0.0362
  area with substrate ENDYFQS: 0.0476
  area with substrate ENEYFQS: 0.0652
  area with substrate ENFYFQS: 0.0385
  area with substrate ENGYFQS: 0.0468
  area with substrate ENHYFQS: 0.0621
  area with substrate ENKYFQS: 0.0585
  area with substrate ENMYFQS: 0.0587
  area with substrate ENNYFQS: 0.0568
  area with substrate ENQYFQS: 0.0637
  area with substrate ENRYFQS: 0.0174
  area with substrate ENSYFQS: 0.0605
  area with substrate ENVYFQS: 0.0788
  area with substrate ENWYFQS: 0.0374
  area with substrate ENYYFQS: 0.0582

## MGESLFKGPRDYNPISSSICHLTNESDGHTTSLYGIGFGPFIITNKHLFRRNNGCLVVQSLHGVFKVKDTTTLQQHLVDGRDMIIIRMPKDFPPFPQKLKFREPQREERICLVTTNFQTKSMSSMVSDTSCTFPSGDGIFWKHWIQTKDGQCGSPLVSTRDGFIVGIHSASNFTNTNNYFTSVPKNFMELLTNQEAQQWVSGWRLNADSVLWGGHKVFMVKPEEPFQPVKEATQL [T55C]
  area with substrate ENAYFQS: 0.0701
  area with substrate ENCYFQS: 0.0761
  area with substrate ENDYFQS: 0.0563
  area with substrate ENEYFQS: 0.0608
  area with substrate ENFYFQS: 0.0618
  area with substrate ENGYFQS: 0.0642
  area with substrate ENIYFQS: 0.105
  area with substrate ENNYFQS: 0.0625
  area with substrate ENPYFQS: 0.0656
  area with substrate ENQYFQS: 0.0591
  area with substrate ENRYFQS: 0.0539
  area with substrate ENSYFQS: 0.0307
  area with substrate ENVYFQS: 0.0806
  area with substrate ENYYFQS: 0.0702

## MGESLFKGPRDYNPISSSICHLTNESDGHTTSLYGIGFGPFIITNKHLFRRNNGTLVVQSLHTVFKVKDTTTLQQHLVDGRDMIIIRMPKDFPPFPQKLKFREPQREERICLVTTNFQTKSMSSMVSDTSCTFPSGDGIFWKHWIQTKDGQCGSPLVSTRDGFIVGIHSASNFTNTNNYFTSVPKNFMELLTNQEAQQWVSGWRLNADSVLWGGHKVFMVKPEEPFQPVKEATQL [G63T]
  area with substrate ENAYFQS: 0.0528
  area with substrate ENCYFQS: 0.0807
  area with substrate ENDYFQS: 0.0666
  area with substrate ENEYFQS: 0.0757
  area with substrate ENGYFQS: 0.0613
  area with substrate ENHYFQS: 0.041
  area with substrate ENKYFQS: 0.0528
  area with substrate ENMYFQS: 0.0772
  area with substrate ENNYFQS: 0.0554
  area with substrate ENPYFQS: 0.0715
  area with substrate ENQYFQS: 0.0687
  area with substrate ENRYFQS: 0.0565
  area with substrate ENTYFQS: 0.0661
  area with substrate ENVYFQS: 0.0782
  area with substrate ENWYFQS: 0.0626
  area with substrate ENYYFQS: 0.0466

## MGESLFKGPRDYNPISSSICHLTNESDGHTTSLYGIGFGPFIITNKHLFRRNNGTLVVQSLHLVFKVKDTTTLQQHLVDGRDMIIIRMPKDFPPFPQKLKFREPQREERICLVTTNFQTKSMSSMVSDTSCTFPSGDGIFWKHWIQTKDGQCGSPLVSTRDGFIVGIHSASNFTNTNNYFTSVPKNFMELLTNQEAQQWVSGWRLNADSVLWGGHKVFMVKPEEPFQPVKEATQL [G63L]
  area with substrate ENAYFQS: 0.0594
  area with substrate ENCYFQS: 0.0521
  area with substrate ENDYFQS: 0.0529
  area with substrate ENEYFQS: 0.0561
  area with substrate ENFYFQS: 0.0637
  area with substrate ENGYFQS: 0.0612
  area with substrate ENHYFQS: 0.0316
  area with substrate ENIYFQS: 0.0862
  area with substrate ENMYFQS: 0.0732
  area with substrate ENNYFQS: 0.0595
  area with substrate ENQYFQS: 0.054
  area with substrate ENSYFQS: 0.0589
  area with substrate ENTYFQS: 0.0594
  area with substrate ENVYFQS: 0.0667
  area with substrate ENYYFQS: 0.0813
